Experimental data: a collection of fitness landscapes (doi:10.1126/science.1257360)
Some of the results follow.

B1: PhoQ; a variant is named by its letters at X, in order, P23837 (parent)
chain: MKKLLRLFFPLSLRVRFLLATAAVVLVLSLAYGMVALIGYSVSFDKTTFRLLRGESNLFYTLAKWENNKLHVELPENIDKQSPTMTLIYDENGQLLWAQRDVPWLMKMIQPDWLKSNGFHEIEADVNDTSLLLSGDHSIQQQLQEVREDDDDAEMTHSVAVNVYPATSRMPKLTIVVVDTIPVELKSSYMVWSWFIYVLSANLLLVIPLLWVAAWWSLRPIEALAKEVRELEEHNRELLNPATTRELTSLVRNLNRLLKSERERYDKYRTTLTDLTHSLKTPLXXLQXXLRSLRSEKMSVSDAEPVMLEQISRISQQIGYYLHRASMRGGTLLSRELHPVAPLLDNLTSALNKVYQRKGVNISLDISPEISFVGEQNDFVEVMGNVLDNACKYCLEFVEISARQTDEHLYIVVEDDGPGIPLSKREVIFDRGQRVDTLRPGQGVGLAVAREITEQYEGKIVAGESMLGGARMEVIFGRQHSAPKDE

Variants of: B1
Assay: enrichment ratio after two sorts for PhoP signalling (ratio (wild type AVST 3.29)); higher = more functional
Conditions: with PhoP (E. coli)
In the case of IPQD, the enrichment ratio is reported as ≤ 0.25. With FTET the enrichment ratio was ≤ 0.25. SCTK gave an enrichment ratio of 7.2. For RHVI, the enrichment ratio was ≤ 0.25. For RYCN, the enrichment ratio was ≤ 0.25. YYTR was tested, and the enrichment ratio was ≤ 0.25. SIYE showed an enrichment ratio of 0.315. RPSE was tested, and the enrichment ratio was ≤ 0.25. With ENII the enrichment ratio was ≤ 0.25. YSGD was tested, and the enrichment ratio was ≤ 0.25. In the case of AYVQ, the enrichment ratio is reported as ≤ 0.25. In the case of AEGA, the enrichment ratio is reported as 11. For PYFY, the enrichment ratio was ≤ 0.25. In the case of HRPT, the enrichment ratio is reported as ≤ 0.25. GHGF was tested, and the enrichment ratio was ≤ 0.25. In the case of RIMW, the enrichment ratio is reported as ≤ 0.25. With YSRE the enrichment ratio was ≤ 0.25. For VACV, the enrichment ratio was ≤ 0.25. With PCEY the enrichment ratio was ≤ 0.25. With RLPD the enrichment ratio was ≤ 0.25. For KHWD, the enrichment ratio was ≤ 0.25. WSGS was tested, and the enrichment ratio was ≤ 0.25. For PFCS, the enrichment ratio was ≤ 0.25. WPRQ was tested, and the enrichment ratio was ≤ 0.25. TRTE was tested, and the enrichment ratio was ≤ 0.25. In the case of SQFG, the enrichment ratio is reported as ≤ 0.25. GDRF was tested, and the enrichment ratio was ≤ 0.25. For IMPK, the enrichment ratio was ≤ 0.25. With TDEI the enrichment ratio was ≤ 0.25. With FTHS the enrichment ratio was ≤ 0.25. With EYCC the enrichment ratio was ≤ 0.25. ILKN was tested, and the enrichment ratio was ≤ 0.25. SQWA was tested, and the enrichment ratio was ≤ 0.25. With TQES the enrichment ratio was ≤ 0.25. In the case of NNIP, the enrichment ratio is reported as ≤ 0.25. With LIVE the enrichment ratio was ≤ 0.25. With DNWF the enrichment ratio was ≤ 0.25. In the case of NNKT, the enrichment ratio is reported as ≤ 0.25. For NPGI, the enrichment ratio was ≤ 0.25. In the case of HAPP, the enrichment ratio is reported as ≤ 0.25. With QTMH the enrichment ratio was ≤ 0.25. In the case of VTDY, the enrichment ratio is reported as ≤ 0.25. With WKCC the enrichment ratio was ≤ 0.25. In the case of PYSD, the enrichment ratio is reported as ≤ 0.25. For YVMV, the enrichment ratio was ≤ 0.25. For SRPI, the enrichment ratio was ≤ 0.25. With RQAR the enrichment ratio was ≤ 0.25. For QFPM, the enrichment ratio was ≤ 0.25. In the case of GRLN, the enrichment ratio is reported as ≤ 0.25. For TFHV, the enrichment ratio was ≤ 0.25. PFMY was tested, and the enrichment ratio was ≤ 0.25. MGKF was tested, and the enrichment ratio was ≤ 0.25. With FIFS the enrichment ratio was ≤ 0.25. In the case of YPQY, the enrichment ratio is reported as ≤ 0.25. With WQDL the enrichment ratio was ≤ 0.25. IWLN was tested, and the enrichment ratio was ≤ 0.25. In the case of RSVQ, the enrichment ratio is reported as ≤ 0.25. For SNHS, the enrichment ratio was ≤ 0.25. In the case of RFTL, the enrichment ratio is reported as ≤ 0.25. In the case of PATF, the enrichment ratio is reported as ≤ 0.25. With VGHM the enrichment ratio was ≤ 0.25. With TKMD the enrichment ratio was 0.263. For CLVI, the enrichment ratio was ≤ 0.25. With TRRL the enrichment ratio was ≤ 0.25. In the case of VLHL, the enrichment ratio is reported as ≤ 0.25. TIEW was tested, and the enrichment ratio was ≤ 0.25. With YNDQ the enrichment ratio was ≤ 0.25. In the case of PRTA, the enrichment ratio is reported as ≤ 0.25. For NKQI, the enrichment ratio was ≤ 0.25. For PNQD, the enrichment ratio was ≤ 0.25. For IIPM, the enrichment ratio was ≤ 0.25. In the case of YWKT, the enrichment ratio is reported as ≤ 0.25. In the case of MRGS, the enrichment ratio is reported as ≤ 0.25. VLHM was tested, and the enrichment ratio was ≤ 0.25. With KHDE the enrichment ratio was ≤ 0.25. In the case of ELVM, the enrichment ratio is reported as ≤ 0.25. For KGWA, the enrichment ratio was ≤ 0.25. With KGCR the enrichment ratio was ≤ 0.25. With RQIE the enrichment ratio was ≤ 0.25. TVGD was tested, and the enrichment ratio was ≤ 0.25. With DEHQ the enrichment ratio was ≤ 0.25. YGVN was tested, and the enrichment ratio was 0.446. MKCF was tested, and the enrichment ratio was ≤ 0.25. In the case of QLLS, the enrichment ratio is reported as ≤ 0.25. RWTS was tested, and the enrichment ratio was ≤ 0.25. VLCA was tested, and the enrichment ratio was ≤ 0.25. REMP was tested, and the enrichment ratio was ≤ 0.25. With ECLQ the enrichment ratio was ≤ 0.25. QNPD was tested, and the enrichment ratio was ≤ 0.25. For LDVW, the enrichment ratio was ≤ 0.25. DWLV was tested, and the enrichment ratio was ≤ 0.25. FSAV showed an enrichment ratio of 0.409. PVWA was tested, and the enrichment ratio was ≤ 0.25. In the case of KVFI, the enrichment ratio is reported as ≤ 0.25. Variant VEMS has an enrichment ratio of 7.83. With WYAL the enrichment ratio was ≤ 0.25. Variant SEAE has an enrichment ratio of 5.82. PHKD was tested, and the enrichment ratio was ≤ 0.25. QMSW was tested, and the enrichment ratio was ≤ 0.25. For VISA, the enrichment ratio was ≤ 0.25. For FFFL, the enrichment ratio was ≤ 0.25. YPPV was tested, and the enrichment ratio was ≤ 0.25. In the case of FEDN, the enrichment ratio is reported as ≤ 0.25. For HYKG, the enrichment ratio was ≤ 0.25. With RVND the enrichment ratio was ≤ 0.25. YDVT was tested, and the enrichment ratio was ≤ 0.25. For DESP, the enrichment ratio was ≤ 0.25. For DLSH, the enrichment ratio was ≤ 0.25. With YGHV the enrichment ratio was 4.1. In the case of IWTF, the enrichment ratio is reported as ≤ 0.25. DPFD was tested, and the enrichment ratio was ≤ 0.25. QCSE was tested, and the enrichment ratio was ≤ 0.25. In the case of RMAM, the enrichment ratio is reported as ≤ 0.25. With RIYA the enrichment ratio was ≤ 0.25. SLGL gave an enrichment ratio of 7.57. In the case of SLIW, the enrichment ratio is reported as ≤ 0.25. For MHMR, the enrichment ratio was ≤ 0.25. With THWM the enrichment ratio was ≤ 0.25. For MCSK, the enrichment ratio was ≤ 0.25. With YQGE the enrichment ratio was ≤ 0.25. In the case of KDYS, the enrichment ratio is reported as ≤ 0.25. With IYCD the enrichment ratio was ≤ 0.25. EYDG was tested, and the enrichment ratio was ≤ 0.25. With PGIV the enrichment ratio was ≤ 0.25. AWMQ was tested, and the enrichment ratio was ≤ 0.25. For YIFL, the enrichment ratio was ≤ 0.25. In the case of TWMR, the enrichment ratio is reported as ≤ 0.25. In the case of ICSV, the enrichment ratio is reported as 0.898. In the case of ATCD, the enrichment ratio is reported as ≤ 0.25. GEKN was tested, and the enrichment ratio was ≤ 0.25. QAFS showed an enrichment ratio of 2.95. For LSDS, the enrichment ratio was ≤ 0.25. VKPE was tested, and the enrichment ratio was ≤ 0.25. In the case of FNRT, the enrichment ratio is reported as ≤ 0.25. With SKNY the enrichment ratio was ≤ 0.25. TEGC was tested, and the enrichment ratio was ≤ 0.25. With WLRH the enrichment ratio was ≤ 0.25. With ELLS the enrichment ratio was ≤ 0.25. For FGKN, the enrichment ratio was ≤ 0.25. In the case of IKQM, the enrichment ratio is reported as ≤ 0.25. MPDM was tested, and the enrichment ratio was ≤ 0.25. With YVFI the enrichment ratio was ≤ 0.25. With DDPC the enrichment ratio was ≤ 0.25. With TPLW the enrichment ratio was ≤ 0.25. For DMGY, the enrichment ratio was ≤ 0.25. With WSPL the enrichment ratio was ≤ 0.25. In the case of SFLR, the enrichment ratio is reported as ≤ 0.25. For WKVE, the enrichment ratio was ≤ 0.25. With YNMA the enrichment ratio was ≤ 0.25. For RPLE, the enrichment ratio was ≤ 0.25. In the case of NHKI, the enrichment ratio is reported as ≤ 0.25. In the case of YHNN, the enrichment ratio is reported as ≤ 0.25. In the case of YGRP, the enrichment ratio is reported as ≤ 0.25. Variant MTLC has an enrichment ratio of 5.48. QYSY was tested, and the enrichment ratio was ≤ 0.25. For LHKT, the enrichment ratio was ≤ 0.25. IDMG was tested, and the enrichment ratio was ≤ 0.25. With DDKS the enrichment ratio was ≤ 0.25. For INCE, the enrichment ratio was ≤ 0.25. In the case of VTFI, the enrichment ratio is reported as ≤ 0.25. For PALN, the enrichment ratio was ≤ 0.25. In the case of SQIW, the enrichment ratio is reported as ≤ 0.25. In the case of IDHS, the enrichment ratio is reported as ≤ 0.25. With NNWY the enrichment ratio was ≤ 0.25. PMVY was tested, and the enrichment ratio was ≤ 0.25. In the case of HLYK, the enrichment ratio is reported as ≤ 0.25. EHII was tested, and the enrichment ratio was ≤ 0.25. SWWW was tested, and the enrichment ratio was ≤ 0.25. In the case of WYAN, the enrichment ratio is reported as ≤ 0.25. In the case of YLRM, the enrichment ratio is reported as ≤ 0.25. For GLDF, the enrichment ratio was ≤ 0.25. In the case of LISN, the enrichment ratio is reported as ≤ 0.25. In the case of MVRK, the enrichment ratio is reported as ≤ 0.25. With LEDD the enrichment ratio was ≤ 0.25. For QDGP, the enrichment ratio was ≤ 0.25. For QQVC, the enrichment ratio was ≤ 0.25. With WFSC the enrichment ratio was ≤ 0.25. In the case of MVRV, the enrichment ratio is reported as ≤ 0.25. With AHSV the enrichment ratio was ≤ 0.25. HRPN was tested, and the enrichment ratio was ≤ 0.25. For HPKC, the enrichment ratio was ≤ 0.25. With LNQG the enrichment ratio was ≤ 0.25. For MFDM, the enrichment ratio was ≤ 0.25. For TIYC, the enrichment ratio was ≤ 0.25. In the case of HKIK, the enrichment ratio is reported as ≤ 0.25. In the case of RCTK, the enrichment ratio is reported as ≤ 0.25. IDHH was tested, and the enrichment ratio was ≤ 0.25. For GSSE, the enrichment ratio was ≤ 0.25. In the case of HGDM, the enrichment ratio is reported as ≤ 0.25. For RRET, the enrichment ratio was ≤ 0.25. In the case of DRQH, the enrichment ratio is reported as ≤ 0.25. With VPMF the enrichment ratio was ≤ 0.25. VTLK was tested, and the enrichment ratio was ≤ 0.25. For LWKL, the enrichment ratio was ≤ 0.25. TMLA was tested, and the enrichment ratio was 2.72.
